# Test results: PubChem BioAssay (Tox21)
# Inconclusive means that the source gave no clear call. Such entries were picked first, then a sample of the others. For part of these data: Potencies of inconclusive entries are left out as doubtful fits. Activity calls are given as the source filed them. Unless noted, the call rests on the fitted dose curve; in most records, active means well fitted curve in the direction sought with a large enough effect in the repeat runs; inconclusive means weak or mixed curves; inactive means no such curve, though single readings can be large; an effect the other way counts as inactive or inconclusive.
# How the values were obtained:
# [1] = qHTS assay to identify small molecule agonists of the sonic hedgehog signaling (Shh) pathway (AID 1259368; calls by dose curve;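 further: NIH/3T3-derived 3T3Gli1-Luc cells carrying a stable Gli1-driven firefly luciferase reporter; on the % scale 0 is the no-effect control and ±100 the full control effect; nearly all actives have a fitted effect of over 15% in size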); details: NIH/3T3 Gli1-Luc reporter, luciferase, 24 h; series mostly up to 92.4 µM
# Procedure, shortened: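 Quantitative high-throughput format using a Gli1-driven firefly luciferase reporter line derived from NIH/3T3 cells. After a 24 hr compound treatment at 37 C and 5% CO2, luminescence reported Gli1 response element activity.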
# [2] = qHTS assay to test for compound auto fluorescence at 460 nm (blue) in HepG2 cell free culture (AID 720685); details: Cell-free culture medium, blue autofluorescence 405/460 nm; series mostly up to 91.3 µM; further: on the % scale 0 is the no-effect control and ±100 the full control effect
# Procedure, shortened: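 Cell-free plates of MEM plus 10% FBS received 23 nL compound or DMSO vehicle; blue-channel (405/460 nm) intensity scored against triamterene as reference fluorophore.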
# [3] = A CellTox Green Cytotoxicity Assay to monitor cytotoxicity in HEK293 cells - 24 hour (AID 1224875); details: CellTox Green fluorescence; series mostly up to 76.8 µM; further: nearly all actives have a fitted effect of over 45% in size; further: potency means the concentration at half of the fitted maximal effect
# Procedure, shortened: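 Dead-cell fluorescence measured kinetically: asymmetric cyanine dye, HEK293, 600 cells/well, 5 h settle, 23 nL cpd/DMSO, 37 C, reads 0–40 h every 8 h.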
# [4] = target: Nuclear receptor subfamily 1 group I member 2 (Homo sapiens) (UniProt O75469); test: Human pregnane X receptor (PXR) activation by small molecules, qHTS assay (AID 1346985); details: DPX-2 HepG2 CYP3A4-luciferase, 24 h; series mostly up to 38.3 µM; further: nearly all actives have a fitted effect of over 40% in size; further: potency means the concentration at half of the fitted maximal effect; on activation: on the % scale 0 is the no-effect control and ±100 the full control effect
# Procedure, shortened: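 DPX-2 cells (HepG2 co-transfected with a PXR response element and a CYP3A4-promoter luciferase construct) were seeded at 2,000 per well, rested 5 hr at 37C, then exposed to DMSO-dissolved compounds for 24 hr. Activation was read as luciferase luminescence.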
# [5] = qHTS assay to identify small molecule antagonists of the estrogen related receptor signaling pathway with the pleiotropic PPARgamma coactivator (PGC) cell viability counter screen (AID 1224822; further: potency means the concentration at half of the fitted maximal effect;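 further: viability read after 17.5 h compound exposure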); details: ERR/PGC reporter cell line viability counter screen; series mostly up to 46.1 µM
# Procedure, shortened: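 Cytotoxicity in the PGC/ERR cell line is assessed with CellTiter-Fluor, read as fluorescence intensity 30 min after reagent addition, following 17.5 h compound treatment at 37 C.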
# [6] = system: estrogen-related receptor alpha (ERRalpha) with PGC-1alpha coactivator, human; test: qHTS assay to identify small molecule antagonists of the estrogen related receptor signaling pathway with the pleiotropic PPARgamma coactivator (PGC) (AID 1224821; calls by dose curve; further: nearly all actives have a fitted effect of over 50% in size; further: potency means the concentration at half of the fitted maximal effect); details: ERR/PGC reporter cell line, luciferase, antagonist mode; series mostly up to 46.1 µM
# Procedure, shortened: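 A PGC/ERR cell line supplied by NTP is seeded, allowed 6 h at 37 C, and treated with test compounds in DMSO for 18 h. Signal is then measured as luciferase luminescence using One-Glo.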
# [7] = qHTS assay to identify small molecule antagonists of the TGF-beta/Smad signaling pathway - cell viability counter screen (AID 1346824); details: SBE-bla HEK293T viability, CellTiter-Glo luminescence; series mostly up to 76.8 µM; further: on the % scale 0 is the no-effect control and ±100 the full control effect; nearly all actives have a fitted effect of over 50% in size
# Procedure, shortened: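 SBE-bla HEK 293T cells were plated overnight at 37 C, then given compounds in DMSO plus TGF-beta1 (added as 0.25 ng/mL solution) for 5 hr. After the bla read, CellTiter-Glo was added to the same wells and luminescence read after 30 min at room temperature.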
# [8] = target: Thyrotropin-releasing hormone receptor (Homo sapiens) (UniProt P34981); test: qHTS assay to identify small molecule antagonists of the thyrotropin-releasing hormone receptor (TRHR) signaling pathway (AID 1346877; active means well fitted inhibition curve with a large enough effect in the repeat runs, not every such curve was filed as active; inconclusive means weak or mixed curves; further: potency means the concentration at half of the fitted maximal effect); details: TRHR-HEK293, TRH-induced calcium fluorescence, antagonist mode; series mostly up to 51.3 µM
# Procedure, shortened: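 Kinetic fluorescence (3 min, 1 s resolution) following stimulation with TRH at 1 nM final; HEK293 cells bearing human TRHR; 5 min compound preincubation at RT; concentration-response over 15 points, triplicates.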
# [9] = A CellTox Green Cytotoxicity Assay to monitor cytotoxicity in HepG2 cells - 0 hour (AID 1224882); details: CellTox Green fluorescence; series mostly up to 76.8 µM; further: nearly all actives have a fitted effect of over 35% in size; further: potency means the concentration at half of the fitted maximal effect
# Procedure, shortened: (§1)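 First, HepG2 cells (600/well) mixed with reagent were plated; second, after 5 h at 37 C they received compounds via pintool; third, fluorescence was measured at 0 h through 40 h at 8 h intervals.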
# [10] = Caspase-3/7 induction in HepG2 cells by small molecules, qHTS assay (AID 1346978); details: HepG2 caspase-3/7 activation, Caspase-Glo luminescence, 17 h; series mostly up to 92.4 µM; further: potency means the concentration at half of the fitted maximal effect; nearly all actives have a fitted effect of over 15% in size
# Procedure, shortened: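 Wild-type HepG2 cells (2,000/well) were settled 5 h at 37 C, 5% CO2, then exposed to compounds in DMSO for 17 h. Caspase-3/7 activity was read by luminescence 30 min after adding Caspase-Glo 3/7 reagent at room temperature.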
# [11] = qHTS RealTime-Glo MT Cell Viability Assay in HepG2 cells - 16 hour (AID 1224885); details: RealTime-Glo luminescence; series mostly up to 76.8 µM; further: on the % scale 0 is the no-effect control and ±100 the full control effect; nearly all actives have a fitted effect of over 50% in size
# Procedure, shortened: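 HepG2 cells were seeded at 600 cells/well together with NanoLuc luciferase and a cell-permeant prosubstrate, preincubated 5 h at 37 C/5% CO2, then pin-dosed with compounds in DMSO. Nonlytic luminescence from viable cells was read at each time point.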
# [12] = A CellTox Green Cytotoxicity Assay to monitor cytotoxicity in HepG2 cells - 32 hour (AID 1224883); details: CellTox Green fluorescence; series mostly up to 76.8 µM; further: nearly all actives have a fitted effect of over 50% in size; further: potency means the concentration at half of the fitted maximal effect
# Procedure, shortened: as §1
# [13] = qHTS assay to identify small molecule antagonists of the estrogen related receptor (ERR) signaling pathway (AID 1224819); details: ERR reporter cell line, luciferase inhibition; series mostly up to 46.1 µM
# Procedure, shortened: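 ERR reporter cell line (NTP) plated at 2,000 cells/well, settled 6 h at 37C/5% CO2, then exposed to LOPAC compounds for 18 h at 37C. One-Glo luciferase luminescence read after 30 min at room temperature.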
# [14] = target: Estrogen receptor (Homo sapiens) (UniProt P03372); test: qHTS assay to identify small molecule agonists of the estrogen receptor alpha (ER-alpha) signaling pathway in the presence of an antagonist (AID 1259383; calls by dose curve; further: nearly all actives have a fitted effect of over 15% in size; further: potency means the concentration at half of the fitted maximal effect); details: VM7Luc4E2 cells, ERE-luciferase, +ICI-182,780, 22 h; series mostly up to 42.5 µM
# Procedure, shortened: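 Readout was ERE-driven luciferase luminescence in VM7Luc4E2 cells, which express full-length ER-alpha endogenously. Compounds were tested at 15 concentrations for 22hr alongside 10.0nM ICI-182,780 (final concentration).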
# [15] = qHTS assay to test for compound auto fluorescence at 460 nm (blue) in HEK293 cell free culture (AID 720681); details: cell-free medium, autofluorescence 405/460 nm (blue); series mostly up to 91.3 µM; further: on the % scale 0 is the no-effect control and ±100 the full control effect
# Procedure, shortened: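 Test compounds were pinned into cell-free culture medium (DMEM with 10% FBS) and fluorescence was read directly at Ex/Em 405/460 nm. Signals were expressed as fluorescence equivalents of triamterene, with DMSO vehicle as control.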
# [16] = qHTS assay to test for compound auto fluorescence at 535 nm (green) in HepG2 cells (AID 720675); details: green autofluorescence 485/535 nm, 1 h; fluorescence, % of fluorescein control: at 91.3 µM (top of the series) unless noted; further: on the % scale 0 is the no-effect control and ±100 the full control effect
# [17] = qHTS assay to identify small molecule agonists of the estrogen related receptor (ERR) signaling pathway from Tox21 library (AID 1224849; calls by dose curve; further: on the % scale 0 is the no-effect control and ±100 the full control effect; nearly all actives have a fitted effect of over 15% in size); details: ERR reporter cell line, ONE-Glo luciferase, 18 h; at 92.4 µM (top of the series) unless noted
# Procedure, shortened: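 Quantitative HTS in agonist format: NTP ERR cell line, compounds transferred in DMSO after 6 h plating, 18 h incubation at 37 C, ONE-Glo luminescence endpoint.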
# Tags describe the fitted curve by direction and shape.
# Chain of UniProt P03372 (P03372 whole entry, looked up): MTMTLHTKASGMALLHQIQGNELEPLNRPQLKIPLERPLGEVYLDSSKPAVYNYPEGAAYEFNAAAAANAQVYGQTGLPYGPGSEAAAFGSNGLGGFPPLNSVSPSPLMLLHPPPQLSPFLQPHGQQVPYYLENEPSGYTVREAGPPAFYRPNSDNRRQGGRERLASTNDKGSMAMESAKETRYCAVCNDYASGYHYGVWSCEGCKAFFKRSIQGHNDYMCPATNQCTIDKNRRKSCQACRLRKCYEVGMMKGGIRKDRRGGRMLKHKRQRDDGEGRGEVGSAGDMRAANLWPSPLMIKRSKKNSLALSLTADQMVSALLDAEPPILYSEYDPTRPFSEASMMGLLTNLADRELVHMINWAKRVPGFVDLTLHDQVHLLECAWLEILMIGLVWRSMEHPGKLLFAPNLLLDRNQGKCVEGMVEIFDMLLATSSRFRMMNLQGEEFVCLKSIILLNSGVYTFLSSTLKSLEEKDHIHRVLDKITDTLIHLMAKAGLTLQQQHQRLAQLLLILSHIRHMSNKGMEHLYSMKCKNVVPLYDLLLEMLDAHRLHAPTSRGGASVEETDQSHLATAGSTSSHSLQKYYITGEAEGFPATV
# Chain of UniProt P34981 (P34981 whole entry, looked up): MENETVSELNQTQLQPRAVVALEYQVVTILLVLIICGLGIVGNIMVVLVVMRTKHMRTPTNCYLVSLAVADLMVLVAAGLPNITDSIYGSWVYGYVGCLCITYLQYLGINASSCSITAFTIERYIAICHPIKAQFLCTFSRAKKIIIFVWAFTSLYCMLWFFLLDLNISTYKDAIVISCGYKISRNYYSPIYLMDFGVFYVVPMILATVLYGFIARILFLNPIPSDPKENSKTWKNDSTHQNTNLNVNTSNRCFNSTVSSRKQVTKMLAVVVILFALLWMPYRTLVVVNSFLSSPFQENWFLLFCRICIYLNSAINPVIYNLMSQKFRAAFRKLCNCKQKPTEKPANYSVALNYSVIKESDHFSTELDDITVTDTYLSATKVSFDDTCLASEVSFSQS
smiles,measurement,setting,value
CC(C)(O)C(=O)c1ccc(OCCO)cc1,Potency,[1],inactive
CCCCC(CC)COC(=O)c1ccc(C(=O)OCC(CC)CCCC)cc1 (configuration not stated),Potency,[2],inactive
CC(C)C(=O)OCc1ccccc1,Potency,[3],"inconclusive [activator, single point]"
OC(CCN1CCCCC1)(c1ccccc1)C1CC2C=CC1C2 (configuration not stated),Potency,[4],"inconclusive [activator, single point]"
CN(C)CC[C@@H](c1ccc(Br)cc1)c1ccccn1,Potency,[5],inactive
CN(C)CCOC(=O)COc1ccc(Cl)cc1,Potency,[6],inactive
Clc1cccnc1,Potency,[7],inactive
CN/C(=C\[N+](=O)[O-])NCCSCc1csc(CN(C)C)n1,Potency,[4],inactive
NS(=O)(=O)c1cc2c(cc1C(F)(F)F)NCNS2(=O)=O,Potency,[8],"inconclusive [inhibitor, single point]"
CCC(=O)Oc1ccc2c(c1)CC[C@@H]1[C@@H]2CC[C@@]2(C)[C@H]1C[C@@H](OC(=O)CC)[C@@H]2OC(=O)CC,Potency,[3],inactive
same,Potency,[9],"inconclusive [activator, single point]"
CCCCN(CCCC)CCCOC(=O)c1ccc(N)cc1,Potency,[4],inactive
CO[Si](CCCNCCN)(OC)OC,Potency,[9],"inconclusive [activator, single point]"
same,Potency,[10],"inconclusive [activator, single point]"
O=CN1CCCCC1,Potency,[11],inactive
O=C(O)CC(O)C(=O)O (configuration not stated),Potency,[9],inactive
O=C(CCCCCCC(=O)Nc1ccccc1)NO,Potency,[10],active: 4.22 µM
CC1(C)C2=CCCC(C)(C)[C@]23CC[C@H]1C3,Potency,[12],"inconclusive [activator, single point]"
Oc1ccccc1F,Potency,[12],inactive
CC(C(O)c1ccc(O)cc1)N1CCC(Cc2ccccc2)CC1 (configuration not stated),Potency,[13],"inconclusive [inhibitor, partial curve, poor fit]"
same,Potency,[6],inconclusive [inhibitor]
same,Potency,[5],"inconclusive [cytotoxic, partial curve, poor fit]"
same,Potency,[14],inactive
C=C1[C@H]2CC[C@@H]3[C@H]2C(C)(C)CCC[C@]13C,Potency,[15],inactive
O=C1O[C@H]([C@H](O)CO)C(O)=C1O,Potency,[16],inactive
c1ccc(B(c2ccccc2)c2ccccc2)cc1,"activity change, positive = activation",[17],inconclusive: 12.6%
same,Potency,[14],"inconclusive [activator, partial curve]"
